Experimental data: publication PMC4336329 (PLoS ONE, 2015)
In all, about 310,000 compounds went through this assay and about 2,200 (0.71%) showed an effect of 50% or more. Effects have a minus sign here. This is one part of the list.

Each compound was assayed against human ether-à-go-go-related gene (hERG) potassium channel (human, UniProt Q12809) (assay: primary screen, population patch clamp on CHO cells stably expressing hERG).
human ether-à-go-go-related gene (hERG) potassium channel, sequence (Q12809 whole entry, looked up): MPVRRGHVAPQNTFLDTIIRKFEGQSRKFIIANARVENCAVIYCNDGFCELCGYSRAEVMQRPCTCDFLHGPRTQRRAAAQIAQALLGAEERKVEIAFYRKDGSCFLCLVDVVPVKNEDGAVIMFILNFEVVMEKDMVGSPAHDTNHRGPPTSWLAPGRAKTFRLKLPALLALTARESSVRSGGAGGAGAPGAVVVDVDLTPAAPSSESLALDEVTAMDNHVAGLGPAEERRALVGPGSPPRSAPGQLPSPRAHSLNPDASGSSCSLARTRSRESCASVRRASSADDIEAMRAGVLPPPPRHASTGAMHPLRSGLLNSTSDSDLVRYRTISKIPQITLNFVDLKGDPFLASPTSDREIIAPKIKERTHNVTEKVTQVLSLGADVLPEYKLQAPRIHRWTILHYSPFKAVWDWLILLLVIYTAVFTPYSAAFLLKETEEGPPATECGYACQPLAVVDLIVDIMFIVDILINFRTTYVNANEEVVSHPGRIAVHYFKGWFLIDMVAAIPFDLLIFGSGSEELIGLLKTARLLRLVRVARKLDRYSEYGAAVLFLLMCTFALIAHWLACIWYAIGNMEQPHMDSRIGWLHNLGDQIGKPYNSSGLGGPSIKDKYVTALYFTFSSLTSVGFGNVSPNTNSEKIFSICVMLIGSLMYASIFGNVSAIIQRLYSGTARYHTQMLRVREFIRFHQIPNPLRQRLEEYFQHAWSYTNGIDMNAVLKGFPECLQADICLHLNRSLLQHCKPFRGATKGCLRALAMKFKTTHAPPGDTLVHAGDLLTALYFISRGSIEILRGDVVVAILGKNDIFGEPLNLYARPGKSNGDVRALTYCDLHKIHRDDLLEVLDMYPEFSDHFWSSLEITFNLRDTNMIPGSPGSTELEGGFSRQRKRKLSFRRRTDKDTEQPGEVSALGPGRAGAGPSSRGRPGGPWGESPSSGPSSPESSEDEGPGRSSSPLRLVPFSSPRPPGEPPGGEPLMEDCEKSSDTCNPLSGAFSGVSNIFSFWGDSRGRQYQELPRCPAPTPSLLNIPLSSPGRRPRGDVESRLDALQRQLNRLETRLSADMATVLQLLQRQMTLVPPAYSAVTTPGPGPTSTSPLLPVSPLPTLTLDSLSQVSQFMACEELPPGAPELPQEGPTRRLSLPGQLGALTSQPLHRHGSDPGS

Compound	hERG current change (%, negative = inhibition) at 1uM
O=c1c2ccccc2c(C=NCc2ccccn2)c(O)n1-c1ccccc1	6.58%
CCc1nc(SCC(=O)c2cccc([N+](=O)[O-])c2)n[nH]1	7.92%
CCCN(CC(=O)Nc1ccccc1C)C(=O)/C=C/c1ccc(OCC)c(OC)c1	-2.59%
CC(=O)NS(=O)(=O)c1ccc(NC(=O)NC2CCCCC2)cc1	-0.47%
O=C(c1cccc(N2C(=O)C3CC=CCC3C2=O)c1)N1CCCc2ccccc21 (stereo not drawn)	-16.3%
CCOC(=O)/C(=C/c1ccc(OC(=O)c2ccncc2)cc1)C(C)=O	-1.57%
O=C(CCc1c[nH]c2ccccc12)N1CCN(c2ccc(F)cc2)CC1	1.71%
O=C(/C=C/c1ccccc1Cl)NNC(=O)c1cccs1	21.3%
COc1ccc(C2NC(c3ccc(OC)cc3)C([N+](=O)[O-])C(C)(C)C2[N+](=O)[O-])cc1 (stereo not drawn)	16.9%
COc1ccnc(Nc2ccc(C)c(C)c2)c1C#N	14.1%
Cn1c(N)c(C(=O)COC(=O)c2ccc(S(=O)(=O)N3CCCCC3)cc2)c(=O)n(C)c1=O	14.6%
C/C(=N\NC(=O)CSCc1ccccc1Br)c1cccc([N+](=O)[O-])c1	10.9%
COC(=O)c1cc(NC(=O)c2cc(-c3ccc(C(F)(F)F)cc3)oc2C(F)(F)F)ccc1N1CCOCC1	10.6%
CCn1nc(NS(=O)(=O)c2ccc([N+](=O)[O-])cc2)c2cc3ccccc3nc21	14.1%
Cc1ccc(C(=O)NNC(=O)c2ccccc2O)cc1S(=O)(=O)N1CCCCC1	13.3%
COc1ccc2occ(C(C)=O)c2c1	17.5%
COCc1ccc(O)c2ncccc12	3.4%
Cc1cc(S(=O)(=O)NC(C)C)ccc1OCC(=O)Nc1ccc2c(c1)OCCO2	2.72%
O=C(Cc1ccc(Cl)cc1)Nc1cccc(S(=O)(=O)N2CCCCC2)c1	3.87%
O=[N+]([O-])c1cc(Cl)ccc1NCCNS(=O)(=O)c1ccccc1	5.63%
CCC1(C)Cc2ccccc2-c2nc(NCCCO)n(-c3ccccc3)c(=O)c21 (stereo not drawn)	-5.83%
CCc1ccc(CN(C)CC(=O)Nc2ccc3c(c2)CCC3)cc1	8.43%
O=C1OCc2cc(N=Nc3c(O)[nH]c(=O)[nH]c3=O)ccc21	12.2%
CCOC(=O)c1c(CN2CCC(C)CC2)oc2ccc(OC)cc12	4.28%
